# From the supplement of paper PMC12217912
# This is one part of the list. The full chains were built here from the parent and the listed change. Inactive controls read about 0.05.
# B1: TEV protease; numbered along this chain (parent)
# chain: MGESLFKGPRDYNPISSSICHLTNESDGHTTSLYGIGFGPFIITNKHLFRRNNGTLVVQSLHGVFKVKDTTTLQQHLVDGRDMIIIRMPKDFPPFPQKLKFREPQREERICLVTTNFQTKSMSSMVSDTSCTFPSGDGIFWKHWIQTKDGQCGSPLVSTRDGFIVGIHSASNFTNTNNYFTSVPKNFMELLTNQEAQQWVSGWRLNADSVLWGGHKVFMVKPEEPFQPVKEATQL
# Variants of: B1
# Assay: raw area under fraction-flipped curve 0-4 h after induction (AUC4h, not background-subtracted), DNA-recorder readout of cleavage of the substrate (dimensionless); higher = more cleavage of the substrate by the protease variant
# Settings: temperature: 34 °C; time window: 0-4 h after rhamnose induction
# 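Also: Bxb1 expression induced with 0.2% (w/v) L-rhamnose at OD600 near 0.5, cultures sampled hourly, flipped fraction per protease–substrate barcode pair counted by paired-end Illumina sequencing.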
Variant,area with substrate CNLYFQS,area with substrate DNLYFQS,area with substrate FNLYFQS,area with substrate HNLYFQS,area with substrate KNLYFQS,area with substrate MNLYFQS,area with substrate PNLYFQS,area with substrate SNLYFQS,area with substrate TNLYFQS,area with substrate WNLYFQS,area with substrate GNLYFQS,area with substrate LNLYFQS,area with substrate RNLYFQS,area with substrate YNLYFQS,area with substrate INLYFQS,area with substrate NNLYFQS,area with substrate VNLYFQS,area with substrate QNLYFQS
MGESLFKGPRDYNPISSSICHLTNESDGHTTSLYGIGFGPFIITNKHLFRRNNGTLVVQSLHGVFKVKDTTTLQQHLVDGRDMIIIRMPKDFPPFPQKLKFREPQREERICLVTTNFQTKSMSSMVSDTSCTFPSGDGIFWKHWIQTKDGQCGSPLVSTRDGFIVGIHSASNMTNTNNYFTSVPKNFMELLTNQEAQQWVSGWRLNADSVLWGGHKVFMVKPEEPFQPVKEATQL [F173M],0.0651,0.0871,0.0609,0.0658,0.0745,0.0706,0.0804,0.0534,0.0603,0.0469,,,,,,,,
MGESLFKGPRDYNPISSSICHLTNESDGHTTSLYGIGFGPFIITNKHLFRRNNGTLVVQSLHGVFKVKDTTTLQQHLVDGRDMIIIRMPKDFPPFPQKLKFREPQREERICLVTTNFQTKSMSSMVSDTSCTFPSGDGIFWKHWIQTKDGQCGSPLVSTRDGFIVGSHSASNFTNTNNYFTSVPKNFMELLTNQEAQQWVSGWRLNADSVLWGGHKVFMVKPEEPFQPVKEATQL [I167S],0.059,0.0322,,0.0615,0.06,0.0575,0.0726,0.0573,,0.0469,0.0609,0.0718,0.054,0.0721,,,,
MGESLFKGPRDYNPISSSICHLTNESDGHTTSLYGIGFGPFIITNKHLFRRNNGTLVVQSLHGVFKVKDTTTLQQHLVDGRDMIIIRMPKDFPPFPQKLKFREPQREERICLVTTNFQTKSMSSMVSDTSCTFPSGDGIFWKHWIQTKDGQCGSPLVSTRDGFIVGYHSASNFTNTNNYFTSVPKNFMELLTNQEAQQWVSGWRLNADSVLWGGHKVFMVKPEEPFQPVKEATQL [I167Y],0.0578,0.066,,0.0497,,,0.0571,0.0519,0.059,0.0751,,0.0511,0.0646,,0.0442,0.0506,0.0511,
MGESLFKGPRDYNPISSSICHLTNESDGHTTSLYGIGFGPFIITNKHLFRRNNGTLVVQSLHGVFKVKDTTTLQQHLVDGRDMIIIRMPKDFPPFPQKLKFREPQREERICLVTTNFQTKSMSSMVSDTSCTFPSGDGIFWKHWIQTKDGQCGSPLVSTPDGFIVGIHSASNFTNTNNYFTSVPKNFMELLTNQEAQQWVSGWRLNADSVLWGGHKVFMVKPEEPFQPVKEATQL [R160P],0.0584,0.0687,,0.0576,0.0873,,,0.0586,0.0576,0.056,,0.0467,,0.0518,0.0546,,0.0684,0.0572
MGESLFKGPRDYNPISSSICHLTNESDGHTTSLYGIGFGPFIITNKHLFRRNNGTLVVQSLHGVFKVKDTTTLQQHLVDGRDMIIIRMPKDFPPFPQKLKFREPQREERICLVTTNFQTKSMSSMVSDTSCTFPSGDGIFWKHWIQTKDGQCGSPLVSTRDGFMVGIHSASNFTNTNNYFTSVPKNFMELLTNQEAQQWVSGWRLNADSVLWGGHKVFMVKPEEPFQPVKEATQL [I164M],0.0646,0.0768,0.0699,0.0648,0.0543,0.0587,0.0574,0.0543,0.0617,0.063,0.0627,0.0596,0.0523,0.0493,0.0573,0.0553,0.062,
MGESLFKGPRDYNPISSSICHLTNESDGHTTSLYGIGFGPFIITNKHLFRRNNGTLVVQSLHGVFKVKDTTTLQQHLVDGRDMIIIRMPKDFPPFPQKLKFREPQREERICLVTTNFQTKSMSSMVSDTSCTFPSGDGIFWKHWIQTKDGQCGSPLVSTRDGFNVGIHSASNFTNTNNYFTSVPKNFMELLTNQEAQQWVSGWRLNADSVLWGGHKVFMVKPEEPFQPVKEATQL [I164N],0.0459,0.0386,0.0481,,0.0648,,,,0.058,0.0658,0.0473,,,0.0523,0.0455,,0.0568,
MGESLFKGPRDYNPISSSICHLTNESDGHTTSLYGIGFGPFIITNKHLFRRNNGTLVVQSLHGVFKVKDTTTLQQHLVDGRDMIIIRMPKDFPPFPQKLKFREPQREERICLVTTNFQTKSMSSMVSDTSCTFPSGDGIFWKHWIQTKDGQCGSPLVSTRDGFIVGIHSASNFPNTNNYFTSVPKNFMELLTNQEAQQWVSGWRLNADSVLWGGHKVFMVKPEEPFQPVKEATQL [T174P],0.0511,0.0599,,0.0584,0.0477,0.0675,,,0.0602,0.0533,,0.0542,,,0.0582,,,
MGESLFKGPRDYNPISSSICHLTNESDGHTTSLYGIGFGPFIITNKHLFRRNNGTLVVQSLHGVFKVKDTTTLQQHLVDGRDMIIIRMPKDFPPFPQKLKFREPQREERICLVTTNFQTKSMSSMVSDTSCTFPSGDGIFWKHWIQTKDGQCGSPLVITRDGFIVGIHSASNFTNTNNYFTSVPKNFMELLTNQEAQQWVSGWRLNADSVLWGGHKVFMVKPEEPFQPVKEATQL [S158I],0.0375,0.0345,,0.05,0.0553,0.0395,,,,0.0389,,,,0.0496,0.0536,,,
MGESLFKGPRDYNPISSSICHLTNESDGHTTSLYGIGFGPFIITNKHLFRRNNGTLVVQSLHGVFKVKDTTTLQQHLVDGRDMIIIRMPKDFPPFPQKLKFREPQREERICLVTTNFQTKSMSSMVSDTSCTFPSGDGIFWKHWIQTKDGQCGSPLVSTRRGFIVGIHSASNFTNTNNYFTSVPKNFMELLTNQEAQQWVSGWRLNADSVLWGGHKVFMVKPEEPFQPVKEATQL [D161R],0.0515,0.0403,,0.065,0.0649,,,0.0341,0.0568,,0.0712,0.0453,0.0259,0.0538,0.0488,,,0.0622
